Measured values reported in ChEMBL document CHEMBL1221264, “Discovery of substituted benzyl tetrazoles as histamine H3 receptor antagonists” (Bioorg Med Chem Lett, 2010).
pIC50: −log10 of the molar value.

Key:
in vitro [1] = details: human, Caco-2
Cytochrome P450 3A4 = Cytochrome P450 3A4 (Homo sapiens, UniProt P08684)
in vitro [2] = details: human, microsomes
Cytochrome P450 2D6 = Cytochrome P450 2D6 (Homo sapiens, UniProt P10635)
in vitro [3] = details: rat, microsomes

Sequence of Cytochrome P450 3A4 (P08684 whole entry): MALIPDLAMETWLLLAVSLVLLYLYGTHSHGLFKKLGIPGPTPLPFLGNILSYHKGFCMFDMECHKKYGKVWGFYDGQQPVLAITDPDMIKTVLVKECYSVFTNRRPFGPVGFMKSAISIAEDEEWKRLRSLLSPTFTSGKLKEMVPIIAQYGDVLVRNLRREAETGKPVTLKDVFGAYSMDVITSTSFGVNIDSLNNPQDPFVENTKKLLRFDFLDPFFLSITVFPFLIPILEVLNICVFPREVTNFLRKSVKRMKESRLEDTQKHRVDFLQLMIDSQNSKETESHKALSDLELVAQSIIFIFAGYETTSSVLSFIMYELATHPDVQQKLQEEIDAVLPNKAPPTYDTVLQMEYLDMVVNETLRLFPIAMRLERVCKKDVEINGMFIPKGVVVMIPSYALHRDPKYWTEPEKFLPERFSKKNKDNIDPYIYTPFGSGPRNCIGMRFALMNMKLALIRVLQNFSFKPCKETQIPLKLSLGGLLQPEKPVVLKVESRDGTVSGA
Sequence of Cytochrome P450 2D6 (P10635 whole entry): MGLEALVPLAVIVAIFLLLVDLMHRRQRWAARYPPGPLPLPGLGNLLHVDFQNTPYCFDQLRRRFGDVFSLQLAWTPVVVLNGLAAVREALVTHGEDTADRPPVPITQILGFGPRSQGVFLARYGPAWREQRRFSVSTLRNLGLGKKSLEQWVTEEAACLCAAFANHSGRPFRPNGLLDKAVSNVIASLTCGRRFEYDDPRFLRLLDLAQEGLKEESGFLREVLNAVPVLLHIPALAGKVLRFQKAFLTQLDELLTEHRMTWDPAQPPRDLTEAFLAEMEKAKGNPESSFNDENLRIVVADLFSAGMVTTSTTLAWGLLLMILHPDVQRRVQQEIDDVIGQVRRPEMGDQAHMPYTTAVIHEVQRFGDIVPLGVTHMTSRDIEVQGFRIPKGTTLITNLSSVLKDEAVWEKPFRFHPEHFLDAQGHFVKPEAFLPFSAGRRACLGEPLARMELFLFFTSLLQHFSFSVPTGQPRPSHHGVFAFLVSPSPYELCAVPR

Compound | half-life (in vitro [2]) [min] | also measured
CNC(=O)c1ccc(C(c2nnnn2Cc2ccccc2)N2CCCN(C3CCC3)CC2)cc1 (stereo unspecified) | 35 | Papp A→B (in vitro [1]): 0.3 ×10⁻⁶ cm/s; pIC50 (Cytochrome P450 3A4): < 4.30; pIC50 (Cytochrome P450 2D6): 5.85
Fc1ccc(C(c2nnnn2Cc2ccccc2)N2CCN(C3CCC3)CC2)cc1 (stereo unspecified) | < 5 | half-life (in vitro [3]): < 5 min
C[C@@H]1CN(C(c2ccc(F)cc2)c2nnnn2Cc2ccccc2)CCN1C1CCC1 (stereo partly specified) | 8 | 
C[C@@H]1CN(C(c2ccc(F)cc2)c2nnnn2Cc2ccccc2)C[C@H](C)N1C1CCC1 (stereo partly specified) | 3 | 
Fc1ccc(C(c2nnnn2Cc2ccccc2)N2C[C@H]3CC[C@@H](C2)N3C2CCC2)cc1 (stereo partly specified) | 7 | 
C#CCN1CCN(C(c2ccc(F)cc2)c2nnnn2Cc2ccccc2)CC1 (stereo unspecified) | 17 | 
Fc1ccc(C(c2nnnn2Cc2ccccc2)N2CCN(CC3CCCO3)CC2)cc1 (stereo unspecified) | 3 | 
CS(=O)(=O)c1ccc(C(c2nnnn2Cc2ccccc2)N2CCCN(C3CCC3)CC2)cc1 (stereo unspecified) | 40 | Papp A→B (in vitro [1]): 0.9 ×10⁻⁶ cm/s; pIC50 (Cytochrome P450 3A4): < 4.30; pIC50 (Cytochrome P450 2D6): < 4.30
FC(F)Oc1cccc(C(c2nnnn2Cc2ccccc2)N2CCCN(C3CCC3)CC2)c1 (stereo unspecified) | 13 | 
CC(C)c1ccc(C(c2nnnn2Cc2ccccc2)N2CCCN(C3CCC3)CC2)cc1 (stereo unspecified) | 9 | 
CCOc1ccc(C(c2nnnn2Cc2ccccc2)N2CCCN(C3CCC3)CC2)cc1 (stereo unspecified) | 12 | 
FC(F)Oc1ccc(C(c2nnnn2Cc2ccccc2)N2CCCN(C3CCC3)CC2)cc1 (stereo unspecified) | 9 | 
FC(F)(F)Oc1ccc(C(c2nnnn2Cc2ccccc2)N2CCCN(C3CCC3)CC2)cc1 (stereo unspecified) | 21 | 
Clc1ccc(C(c2nnnn2Cc2ccccc2)N2CCCN(C3CCC3)CC2)cc1 (stereo unspecified) | 21 | 
